The values that follow come from the supplement of paper PMC10681739.

Over roughly 2,700 sequences, “arbitrary fluorescence units” has its median near 4,100; the highest 2% begin near 54,000. The list shows a part of the results.

The target in this assay is T1, ETS1 (UniProt P14921).
T1 sequence: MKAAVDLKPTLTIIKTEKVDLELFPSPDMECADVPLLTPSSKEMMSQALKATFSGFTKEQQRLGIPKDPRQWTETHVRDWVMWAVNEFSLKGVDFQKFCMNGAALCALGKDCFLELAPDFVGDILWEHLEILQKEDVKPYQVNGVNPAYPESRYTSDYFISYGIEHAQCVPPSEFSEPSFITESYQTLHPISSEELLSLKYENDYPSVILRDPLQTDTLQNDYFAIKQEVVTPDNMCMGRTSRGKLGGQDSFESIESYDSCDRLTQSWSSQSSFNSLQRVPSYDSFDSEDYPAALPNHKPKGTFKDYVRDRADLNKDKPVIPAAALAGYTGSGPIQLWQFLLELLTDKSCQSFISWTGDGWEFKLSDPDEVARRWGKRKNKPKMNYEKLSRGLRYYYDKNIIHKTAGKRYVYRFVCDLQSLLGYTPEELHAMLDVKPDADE
The assay can be described thus: ETS1 binding intensity (PBM fluorescence) (arbitrary fluorescence units); higher = stronger binding. As to conditions: ETS1 concentration 10 nM. As for the experimental part: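 gcPBM on wild-type 36-bp genomic probes with two neighbouring ETS1 sites (4-24 bp apart). Recombinant human ETS1 (10 nM) was detected with anti-ETS1 antibody fluorescence. Values are medians over 3 replicate spots. The probes sit in constant array flanks that are not printed.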
Sequence GGGCGGAAGGGAGGCCGCCCCGAGAGCCGGAAGCCT showed an ETS1 binding intensity of 678. With TCCCAGCTGTCTGCTTCCTTCCTGTGTGTCATTCGT, the ETS1 binding intensity was 3230. The same measure for TTTCAACCTCACATTTCCCTTCCTCACTACCCTAGC: 264; for GAAAACATAGCACAGGAAGGAAGCTGTTGCACCATA: 572; for GAGGCAGGAAGCACTCATTCCATATCAGGAAGTGAT: 3790. The same measure for ACTTTGCAGACAGGAAGTAAAGGAAATGGGACCCCA: 13200; for GAACAAGGCCTTCCTGAAGCAATTTCCTGATTTGAC: 1860; for TGGCAGGATGGAGTGGGTGCAAGCAGGGGAAATGTC: 173. On to AGGGGGGATGTGTGTGGCCAAGAGTCCGGAAATGGG, for which the ETS1 binding intensity was 2280.

For the sequence CAGGCAGGAAGGCATCAGTGTGGCATTTCCTGTGTA, the ETS1 binding intensity was 4100. The figure for CCCCTACTCTTCCGGGCAGCCCACTTCCGCGGCCAC is 9240; for TCTGCAGTTTCCTGATAAGTGTGTTTCCGGCTTTTG it is 6480; for ACATAAGACATGAGGATGTCTTCCTGACTTGCGTCC it is 208.

ACCTCAGGAAGCTCTGGCAGGGCTTTAGGAAGCGCA displayed an ETS1 binding intensity of 259. The same measure for TTGCTGCATCCGCAGGAGCCCAGGCGGAAGAGATGC: 4850. The figure for CACCCAGGGAAGTGGAGCTACAGACAGGATGTTTCA is 491; for CAGATAATCACAGGAAGTCATTTCCTTTGGTGATCT it is 6490. The figure for TCAGCTGGCACTTCCCCTTGGTTTCCTGTTACATTT is 5390; for AAACTCATGAGGAAGCTAGTAGAGGAAGTGGGTCAT it is 385; for CACAGGAAACGGTGTGAGGAGACTCCATTTCCCCAG it is 8050. Take CGGGAGGTTCCTGCCAATGCCGGGAGGAAGAGCAAC: the ETS1 binding intensity was 466. Turning to CGCAGTGACTCATCCTGCCCCTTTCCGGTGAAGCCC, the ETS1 binding intensity was determined as 3890.

As for AAAGCCAGGAAATGCCAGGGCTGGGAGGAAGCAGAA, the ETS1 binding intensity turned out to be 1770. The same measure for CCAGCGGAAACAGCCCTTCTCTGCCACTTCCTGTCC: 14000. For the sequence TGTCCCCAGAGGAAGCTCCCTCTTTCCTGTGCCTCC, the ETS1 binding intensity worked out at 647. As for GGTCCATCCGGAGCCACTCCGCGCCCCGGAAAAGCT, the ETS1 binding intensity was 7400. The sequence GTGCTGCCATCCTGTGGCCATTGCAGGAAGTGTGCC displayed an ETS1 binding intensity of 1860. Regarding CTTATCTTACTTCCTTATCACACTTCCTGCCCTGAG, the ETS1 binding intensity stood at 10600.

For CCCCACCGACTTCCGGCTTTGTTTCCTCATCTGTAA, the ETS1 binding intensity was 52800.

Regarding TCCCATTTCCCGACGCCGCGCCCGGCTTCCGCTTTA, the ETS1 binding intensity is 4190.

Turning to GCTGTCAGCGCTTCCGAGGTCCGGAAGACCTGCCTA, the ETS1 binding intensity came out at 976. The same measure for ACGGCCGGAAAACGCTCCAGCGCGCCGGAAGTCCCG: 5390. The same measure for CCTAATGGTTTCCTCCCTTCTCTCTTCCTCCCTCTA: 2210; for CAGGCAGGAAGTGAAAGGGGCCTGCAGGAAGCCCCA: 8970.

TACCCGGAAGGTGCCGGGTTCGAGCCCGGAACGGCC: the ETS1 binding intensity amounted to 353. TGAGCTATTTGACTTCCGGTTTCCTGCCCCATTTAA yielded an ETS1 binding intensity of 63200. Turning to AACTCTTCCTGACATGGAGGTCTCCACTTCCTGTCC, the ETS1 binding intensity was determined as 8380. The sequence GTAACCGGAAATAAAGACCTCCGATCTTCCGCCCCA returned an ETS1 binding intensity of 28300.

In turn, AGAACCGGATTGGGCCGCGGCGGGGACGGAAGCGGC registered an ETS1 binding intensity of 237.

Regarding CCCTTCAAGGGAAGTCTTAGTACATCCGGTTGACAC, the ETS1 binding intensity was 15500.

Turning to AGTCACACAGGAAATGGAGCCAGGGGATGTGCTCAA, the ETS1 binding intensity was found to be 14800. The figure for GTCACTTCCTGACCCTTGCTCAAGAGCATCCGGAGC is 26400. Regarding CTCCGCCCGGAACAGCCGCGGCGCCGGAAGTGGACC, the ETS1 binding intensity was found to be 4600. In turn, TGGGTTCCGCCTTAGCGATCGGTTGGGAGGAAGGCT registered an ETS1 binding intensity of 706.

Take GGATTGCAGGAAGGGCTCAGGCAACTTCCTGTGTTT: the ETS1 binding intensity was 6090.

Consider GATGCCAGGAAGCTGAGAATTGTCAGGATGTTTGTC, for which the ETS1 binding intensity stood at 1090.

TCCCCTCTGCCTTCCGCGCCCGGATAAGAATCGAAC displayed an ETS1 binding intensity of 183. The figure for AGGGGAATCAGACAGGAAGGAAGTGCCATTGTGATA is 1790; for GGGCGACCCCGCAGGAAGTAGGAAGGACGAGCGCGC it is 1760; for CCCAAACAGGAAGAAGGGACATAGGGAAATGGCCCT it is 5770. The same measure for AGAGTTTCCTACATTCTTTACATTCACAGGATATCT: 1830. In the case of TGAGCTTCCTGCCAGAAATGAGATTTGGGAAGTTTG, the ETS1 binding intensity was 16700. As for TGCACTCACACTTCCTCCCATTTCCTGTGGGCGGCC, the ETS1 binding intensity is 16700.

TTTCTGGCATTTCCCGTTACAACATCCTGCTCTGCC: the ETS1 binding intensity is 10700.

As to GACAGTTTCCTCTTTCACACTAGAATATCCTGTTGT, the ETS1 binding intensity worked out at 10900. The figure for ACTGCAGCCTCCTTCCTGTGCTTCCTCACCCGGGCC is 6800; for CCAGGGACTTCCGTTGTCGTCAGCGGAAGCGGTGAC it is 31700; for TGGGTGCCCCTTCCTGTGGGTGGGAAATGGGGAGCG it is 8410. Consider AAAGAACGAGGAAATGAATGAAAGGAAGTGCTTTGA, for which the ETS1 binding intensity was 834. The same measure for TGATGATGCTGTTCCGGGGGCATCCTGGCGAGTGAG: 417; for TCGGCCACTTCCGGCGCGCGGGGCGGAAAGCGGGCG: 75800. Turning to AGAGCGCAGTTTCCGGTAGACCCGGAAGCCGATTGC, the ETS1 binding intensity is 37700. The same measure for CCCACCCACTTCCGCCTAGCTACCGGAAGTTTCTAT: 28800.
